Experimental data taken from the supplement of paper PMC11880418.
Where a name gives a salt, the structure may show the parent alone. Some of the results follow. The data scatter; read single values as rough.
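Note: High-content imaging of ALDEFLUOR-stained cells with Hoechst-labelled nuclei in 384-well plates, triplicate wells, scored as Z-score against 0.1% DMSO vehicle, negative meaning fewer ALDHbr cells.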

The molecules below were run on PANC1 (assay: ALDHbr (CSC) cell proportion score relative to DMSO vehicle (ratio to DMSO); breast (SUM159) / gastric (MKN45) / pancreatic (PANC1) / colon cancer lines; ALDHbr cells have high ALDH activity and are rich in cancer stem cells (CSC); higher = more CSC (ALDHbr) cells remaining). Settings: 10 µM; 72 h.
Work on CC(=O)OCC(=O)[C@@]12N=C(C)O[C@@H]1C[C@H]1[C@@H]3CCC4=CC(=O)C=C[C@]4(C)[C@H]3[C@@H](O)C[C@@]12C [Deflazacort] yielded an ALDHbr of 0.677. With CC(CNC1CCCCC1)OC(=O)c1ccccc1 (centres undefined) [Hexylcaine hydrochloride] the ALDHbr was 0.859. Work on CCOC(=O)C1=C(C)NC(C)=C(C(=O)OCC)C1c1ccccc1/C=C/C(=O)OC(C)(C)C [Lacidipine] yielded an ALDHbr of 0.895. O=C(Nc1cccc2c(=O)cc(-c3nnn[nH]3)oc12)c1ccc(OCCCCc2ccccc2)cc1 [Pranlukast] gave an ALDHbr of 0.681. CCN(CC)CCOC(=O)C(c1ccccc1)C1CCCCC1 (centres undefined) [Drofenine hydrochloride] gave an ALDHbr of 0.967. For C#C[C@]1(O)CC[C@H]2[C@@H]3CCC4=CC(=O)CC[C@@H]4[C@H]3CC[C@@]21C [Norethindrone], the ALDHbr was 0.717. With CC1(C)NC(=O)N(c2ccc([N+](=O)[O-])c(C(F)(F)F)c2)C1=O [Nilutamide] the ALDHbr was 0.854.

The molecules below were run on SUM159 in the same assay as above. Settings: 10 µM; 72 h.
With CC(C)(CO)C(O)C(=O)NCCCO (centres undefined) [Panthenol (D)] the ALDHbr was 1.03. C=C1c2cccc(O)c2C(O)=C2C(=O)[C@]3(O)C(O)=C(C(N)=O)C(=O)[C@@H](N(C)C)[C@@H]3[C@@H](O)[C@H]12 [Methacycline hydrochloride] showed an ALDHbr of 0.911. For C[C@H]1NC(=O)NC1=O [Methylhydantoin-5-(D)], the ALDHbr was 0.931. In the case of C=CC1=C(C(=O)O)N2C(=O)[C@@H](NC(=O)/C(=N\OCC(=O)O)c3csc(N)n3)[C@H]2SC1 [Cefixime], the ALDHbr is reported as 0.99. With CN(C)CCc1c[nH]c2ccc(C[C@H]3COC(=O)N3)cc12 [Zolmitriptan] the ALDHbr was 1.21. Molecule CC(C)CN(C[C@@H](O)[C@H](Cc1ccccc1)NC(=O)O[C@H]1CCOC1)S(=O)(=O)c1ccc(N)cc1 [Amprenavir] has an ALDHbr of 1.1. In the case of O=C(N/N=C/c1ccc([N+](=O)[O-])o1)c1ccc(O)cc1 [Nifuroxazide], the ALDHbr is reported as 0.154. CC1=C(/C=C/C(C)=C/C=C/C(C)=C/C(=O)O)C(C)(C)CCC1 [Retinoic acid] was tested, and the ALDHbr was 0.0693. Molecule CN(C)CCCN1c2ccccc2CCc2ccccc21 [Imipramine hydrochloride] has an ALDHbr of 0.939. CCCCOc1cc(C(=O)NCCN(CC)CC)c2ccccc2n1 [Dibucaine] was tested, and the ALDHbr was 1.01. Molecule CCCCCCCN(CC)CCCC(O)c1ccc(NS(C)(=O)=O)cc1 (centres undefined) [Ibutilide fumarate] has an ALDHbr of 1.25. With CC(C)NCC(O)c1cc(O)cc(O)c1 (centres undefined) [Metaproterenol sulfate, orciprenaline sulfate] the ALDHbr was 2.6. CCCC1C(=O)N2C(N(C)C)=Nc3ccc(C)cc3N2C1=O (centres undefined) [Azapropazone] was tested, and the ALDHbr was 1.31. With N=C(N=C(N)N)N1CCOCC1 [Moroxidine hydrochloride] the ALDHbr was 0.916. CC(C)NC[C@H](O)COc1cccc2ccccc12 [(S)-propranolol hydrochloride] was tested, and the ALDHbr was 1.33. Cc1cccc(CN2CCN(C(c3ccccc3)c3ccc(Cl)cc3)CC2)c1 (centres undefined) [Meclozine dihydrochloride] showed an ALDHbr of 0.728. For CCN(CC)CCNC(C(=O)OCCC(C)C)c1ccccc1 (centres undefined) [Camylofine chlorhydrate], the ALDHbr was 0.934. With C[C@]12C=CC(=O)C=C1CC[C@H]1[C@@H]3C[C@@H](O)[C@](O)(C(=O)CO)[C@@]3(C)C[C@H](O)[C@@]12F [Triamcinolone] the ALDHbr was 1.12. Molecule OC(CCCN1CCCCC1)(c1ccccc1)c1ccccc1 [Diphenidol hydrochloride] has an ALDHbr of 0.849. Molecule CCN(CC)C(=S)SSC(=S)N(CC)CC [Disulfiram] has an ALDHbr of 0.88. With CC(=O)OCC1=C(C(=O)O)N2C(=O)[C@@H](NC(=O)Cc3cccs3)[C@H]2SC1 [Cephalothin sodium salt] the ALDHbr was 0.735. For CN(C)CCOC(c1ccccc1)c1ccccc1.Cn1c(=O)c2[nH]c(Cl)nc2n(C)c1=O [Dimenhydrinate], the ALDHbr was 1.03. For CN(N=O)C(=O)N[C@H]1C(O)O[C@H](CO)[C@@H](O)[C@@H]1O (mixture of isomers) [Streptozotocin], the ALDHbr was 1.06. CCCCCN(C)CCC(O)(P(=O)(O)O)P(=O)(O)O [Ibandronate sodium] was tested, and the ALDHbr was 1. For CN(CCCN1c2ccccc2CCc2ccccc21)CC(=O)c1ccc(Cl)cc1 [Lofepramine], the ALDHbr was 0.664. CN(C)CCC[C@@]1(c2ccc(F)cc2)OCc2cc(C#N)ccc21 [Escitalopram oxalate] showed an ALDHbr of 1.35. In the case of Cc1cnc(C(=O)NCCc2ccc(S(=O)(=O)NC(=O)NC3CCCCC3)cc2)cn1 [Glipizide], the ALDHbr is reported as 1.15.
